Results: the supplement of paper PMC4967469
By IC50 is meant the dose at which the fit gives 50% viability; where the fit passes the top or lowest dose, that dose stands as a limit. The AUC spans the tested range (256-fold, ending at the top dose) of the same fit; it is 1 without any effect and falls as sensitivity rises. For some assays here: An inferred top dose is not printed in the source and was worked back from the curve model. For some assays here: Drugs with an entry number were screened twice under separate entries, and the two screens often disagree.

Experiments:
Assay in all cases: Viability of human cancer cell lines after 72 h of drug (GDSC screen)
[1] = compound: O=S(=O)(O)c1ccc2cc(N=Nc3cc(S(=O)(=O)O)c4cccnc4c3O)ccc2c1 [NSC-87877]; details: top dose 16 µM; top dose inferred
Experimental: (§1)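 Human cancer cell lines in 384-well plates, medium with 10% serum, drug for 72 h over a 256-fold dose range (nine 2-fold or five 4-fold steps up to the top dose). Adherent lines were fixed and stained with the nucleic acid dye Syto60, suspension lines read with resazurin; signal relative to control wells, capped at 0 and 100%. One two-parameter sigmoid per drug and line, fitted in a mixed model over all curves with the slope shared within a line.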

[2] = compound: Cc1c(N)nc([C@H](CC(N)=O)NC[C@H](N)C(N)=O)nc1C(=O)N[C@H](C(=O)N[C@H](C)[C@@H](O)[C@H](C)C(=O)N[C@H](C(=O)NCCc1nc(-c2nc(C(=O)NCCC[S+](C)C)cs2)cs1)[C@@H](C)O)[C@@H](OC1OC(CO)C(O)C(O)C1OC1OC(CO)C(O)C(OC(N)=O)C1O)c1cnc[nH]1 [Bleomycin]
Experimental: as §1

[3] = compound: O=C(Nc1ccc(OC(F)(F)F)cc1)c1sccc1NCc1ccnc2ccccc12 [OSI-930]; details: top dose 10.24 µM
Experimental: as §1

[4] = compound: O=C(Nc1cccc(Nc2ncc(Br)c(NCCc3cnc[nH]3)n2)c1)N1CCCC1 [BX-912]; details: top dose 10.24 µM; top dose inferred
Experimental: as §1

[5] = compound: COc1cc(N2CCC(C(N)=O)CC2)ccc1Nc1nc(N)c(Cl)c(Nc2ccccc2S(=O)(=O)C(C)C)n1 [HG-5-88-01]; details: top dose 10 µM; top dose inferred
Experimental: as §1

[6] = compound: CCCC(=O)OCc1ccc(OC(=O)/C=C(C)/C=C/C=C(C)/C=C/C2=C(C)CCCC2(C)C)cc1 [VNLG/124]; details: top dose 5.12 µM; top dose inferred
Experimental: as §1

[7] = compound: CN(NC(=O)CC(=O)NN(C)C(=S)c1ccccc1)C(=S)c1ccccc1 [Elesclomol]; details: top dose 0.2 µM; top dose inferred
Experimental: as §1

[8] = compound: CC/C(=C(\c1ccccc1)c1ccc(OCCN(C)C)cc1)c1ccccc1 [Tamoxifen]; details: top dose 5 µM
Experimental: as §1

[9] = compound: Cc1ccc(NC(=O)c2ccc(CN3CCN(C)CC3)cc2)cc1Nc1nc(-c2cccnc2)cs1 [Masitinib]; details: top dose 20 µM
Experimental: as §1

[10] = compound: O=C(/C=C/c1ccc(CN(CCO)CCc2c[nH]c3ccccc23)cc1)NO [LAQ824]; details: top dose 1.024 µM; top dose inferred
Experimental: as §1

[11] = top dose 50 µM, screen: GDSC drug entry 1378, top dose inferred
[12] = top dose 64 µM, screen: GDSC drug entry 190

Row | Cell Line | AUC [1] | IC50 [1] | AUC [2, 11] | IC50 [2, 11] | AUC [2, 12] | IC50 [2, 12] | AUC [3] | IC50 [3] | AUC [4] | IC50 [4] | AUC [5] | IC50 [5] | AUC [6] | IC50 [6] | AUC [7] | IC50 [7] | AUC [8] | IC50 [8] | AUC [9] | IC50 [9] | AUC [10] | IC50 [10]
1 | HT-115 (large intestine, adherent) | 0.991 | > 16 µM | 0.854 | 34.2 µM | 0.938 | > 64 µM | 0.99 | > 10.2 µM | 0.991 | > 10.2 µM | 0.951 | > 10 µM | 0.986 | > 5.12 µM | 0.872 | 0.162 µM | 0.964 | > 5 µM | 0.892 | 19.9 µM | 0.717 | 0.247 µM
2 | NCI-H2347 (lung adenocarcinoma, adherent) | 0.961 | > 16 µM | 0.774 | 23.9 µM | 0.517 | 4.49 µM | 0.927 | > 10.2 µM | 0.969 | > 10.2 µM | 0.9 | > 10 µM | 0.981 | > 5.12 µM | 0.648 | 0.0353 µM | 0.96 | > 5 µM | 0.975 | > 20 µM | 0.542 | 0.0856 µM
3 | SNG-M (endometrium, adherent) | 0.985 | > 16 µM | 0.305 | 0.899 µM | 0.246 | 0.755 µM | 0.942 | > 10.2 µM | 0.817 | 5.57 µM | 0.889 | > 10 µM | 0.986 | > 5.12 µM | 0.806 | 0.0992 µM | 0.951 | > 5 µM | 0.836 | 12.9 µM | 0.39 | 0.0322 µM
4 | MMAC-SF (melanoma, adherent) | 0.979 | > 16 µM | 0.881 | > 50 µM | 0.763 | 23.9 µM | 0.983 | > 10.2 µM | 0.972 | > 10.2 µM | 0.806 | 5.36 µM | 0.987 | > 5.12 µM | 0.748 | 0.067 µM | 0.962 | > 5 µM | 0.891 | > 20 µM | 0.496 | 0.0623 µM
5 | no-11 (glioma, adherent) | 0.983 | > 16 µM | 0.764 | 22.6 µM | 0.737 | 23 µM | 0.951 | > 10.2 µM | 0.932 | > 10.2 µM | 0.98 | > 10 µM | 0.983 | > 5.12 µM | 0.568 | 0.0201 µM | 0.979 | > 5 µM | 0.929 | > 20 µM | 0.654 | 0.192 µM
6 | OVTOKO (ovary, adherent) | 0.98 | > 16 µM | 0.485 | 2.82 µM | 0.333 | 1.2 µM | 0.966 | > 10.2 µM | 0.949 | > 10.2 µM | 0.875 | > 10 µM | 0.971 | > 5.12 µM | 0.355 | 0.00442 µM | 0.963 | > 5 µM | 0.864 | > 20 µM | 0.445 | 0.0433 µM
7 | SK-N-DZ (neuroblastoma, adherent) | 0.987 | > 16 µM | 0.644 | 7.8 µM | 0.888 | > 64 µM | 0.983 | > 10.2 µM | 0.929 | > 10.2 µM | 0.953 | > 10 µM | 0.984 | > 5.12 µM | 0.839 | 0.133 µM | 0.957 | > 5 µM | 0.971 | > 20 µM | 0.456 | 0.0485 µM
8 | OVISE (ovary, adherent) | 0.925 | > 16 µM | 0.752 | 21.5 µM | 0.642 | 11.3 µM | 0.976 | > 10.2 µM | 0.938 | > 10.2 µM | 0.962 | > 10 µM | 0.981 | > 5.12 µM | 0.489 | 0.0116 µM | 0.977 | > 5 µM | 0.874 | > 20 µM | 0.534 | 0.0815 µM
9 | KYSE-150 (oesophagus, adherent) | 0.984 | > 16 µM | 0.758 | 16.7 µM | 0.087 | < 0.25 µM | 0.983 | > 10.2 µM | 0.965 | > 10.2 µM | 0.988 | > 10 µM | 0.985 | > 5.12 µM | 0.81 | 0.0996 µM | 0.988 | > 5 µM | 0.978 | > 20 µM | 0.488 | 0.0596 µM
10 | VMRC-RCZ (kidney, adherent) | 0.982 | > 16 µM | 0.806 | 30.8 µM | 0.374 | 1.69 µM | 0.968 | > 10.2 µM | 0.847 | 9.47 µM | 0.976 | > 10 µM | 0.978 | > 5.12 µM | 0.812 | 0.129 µM | 0.979 | > 5 µM | 0.874 | > 20 µM | 0.448 | 0.0451 µM
11 | NCI-H1651 (lung adenocarcinoma, adherent) | 0.985 | > 16 µM | 0.598 | 5.94 µM | 0.269 | 0.826 µM | 0.961 | > 10.2 µM | 0.987 | > 10.2 µM | 0.985 | > 10 µM | 0.987 | > 5.12 µM | 0.776 | 0.0858 µM | 0.985 | > 5 µM | 0.979 | > 20 µM | 0.438 | 0.0428 µM
